# Experimental data published in PubChem BioAssay AID540317 (National Center for Advancing Translational Sciences (NCATS), 2011).
# Screen size: about 390,000 compounds; about 2,200 (0.56%) were called active. Inconclusive results, whose numbers are uncertain, are shown with a selection of clear calls. The call rests on the fitted dose curve; in most records, active means well fitted inhibition curve with a large enough effect; inconclusive means small, poorly fitted or top-dose-only effect; inactive means no such curve, though single readings can be large or run the other way. A potency beside an inconclusive call is a rough fit, not a confirmed value.
# Biological target: Chromobox protein homolog 1 (Homo sapiens) (UniProt P83916)
# Sequence of UniProt P83916 (P83916 whole entry, looked up): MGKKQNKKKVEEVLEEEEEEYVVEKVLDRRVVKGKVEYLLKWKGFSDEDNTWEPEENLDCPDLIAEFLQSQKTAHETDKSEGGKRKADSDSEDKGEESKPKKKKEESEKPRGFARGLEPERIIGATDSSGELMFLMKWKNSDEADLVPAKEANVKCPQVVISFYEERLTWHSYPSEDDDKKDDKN
# Test: HTS for Inhibitors of HP1-beta Chromodomain Interactions with Methylated Histone Tails; further: nearly all actives have a fitted effect of over 70% in size
# Details: AlphaScreen HP1-beta / biotin-H3K9me3 peptide binding; series mostly up to 114 µM; activity change, negative = inhibition: at the top concentration
# In short: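 HP1-beta protein (50 nM final) preincubated 30 min at room temperature with biotinylated H3(1-18)K9me3 peptide (50 nM) in PBS pH 7.4, 0.01% Tween-20, then compound added for 30 min. AlphaScreen streptavidin donor/nickel chelate acceptor beads (10 ug/mL final), 30 min dark, luminescence read.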
# Potency means the concentration at half of the fitted maximal effect; tags describe the fitted curve by direction and shape.
SMILES,Potency,"activity change, negative = inhibition"
CC(C)(C)Cc1nnc(NC(=O)Cc2ccc([N+](=O)[O-])cc2)s1,"inconclusive: 22.4 µM [inhibitor, partial curve, poor fit]",–
COc1ccc(/C=N/Nc2ccc(C(F)(F)F)cc2[N+](=O)[O-])cc1O,"inconclusive: 79.4 µM [inhibitor, single point]",–
CN(Cc1ccccc1)C(=O)c1ccc(NC(=O)Cc2ccc([N+](=O)[O-])cc2)cc1,–,inactive: 28.4%
NC(=O)c1ccccc1NC(=O)C1CCCN(c2ncnc3onc(-c4ccc(F)cc4)c23)C1 (stereo unspecified),–,inactive: 28.4%
COc1cc(CNCc2ccc(C)cc2)cc(OC)c1OC,"inconclusive: 12.6 µM [inhibitor, full curve]",–
CC(C)n1c2ccccc2c2nnc(SCC(=O)Nc3ccccc3C(=O)O)nc21,"inconclusive: 39.8 µM [inhibitor, single point]",–
Cc1cc(F)ccc1NCc1ccncc1,–,inactive: 22.4%
Cc1ccc(NC(=O)CCC(=O)N/N=C/c2cccnc2)cc1,"inconclusive: 89.1 µM [inhibitor, partial curve, poor fit]",–
O=C(OCc1nc2scc(-c3ccccc3)c2c(=O)[nH]1)c1cccc([N+](=O)[O-])c1,"inconclusive: 39.8 µM [inhibitor, single point]",–
CN(C)c1ccc(CN(CC2CCCO2)C(=O)COc2ccccc2Cl)cc1 (stereo unspecified),"inconclusive: 25.1 µM [inhibitor, full curve]",–
CCOC(=O)c1ccc(NC(=S)NCCC2=CCCCC2)cc1,–,inactive: 38.9%
Cc1ccccc1C(=O)N(Cc1ccc(N(C)C)cc1)Cc1ccco1,"inconclusive: 28.2 µM [inhibitor, full curve]",–
Cc1cc(N2C(=O)C=CC2=O)c([N+](=O)[O-])cc1C,active: 5.62 µM,–
CC1CCN(CC(=O)Nc2ccc(S(=O)(=O)NC3CC3)cc2)CC1,"inconclusive: 20 µM [inhibitor, full curve, poor fit]",–
S=C(NCc1cccs1)Nc1ccccc1,–,inactive: 23.3%
O=C(NC(=S)NC1CCS(=O)(=O)C1)c1ccccc1Br (stereo unspecified),–,inactive: 26.5%
O=C(Nc1cccc(Cl)c1Cl)C1CCN(C(=O)c2cccs2)CC1,–,inactive: 19.6%
Cn1cnc(Sc2ncnc3nc[nH]c23)c1[N+](=O)[O-],"inconclusive: 15.8 µM [inhibitor, full curve]",–
COc1ccc(-c2nnc(SC)nc2-c2ccc(OC)c([N+](=O)[O-])c2)cc1[N+](=O)[O-],"inconclusive: 14.1 µM [inhibitor, full curve]",–
Cc1ccc(C(=O)Nc2ccccc2)cc1S(=O)(=O)N1CCN(C)CC1,–,inactive: 13.2%
CCOc1ccc(-c2cnc(NCc3ccc(C(F)(F)F)cc3)n2C)cc1,"inconclusive: 14.1 µM [inhibitor, full curve, poor fit]",–
O=C1NC(=S)CN1c1ccccc1,"inconclusive: 11.2 µM [inhibitor, partial curve, poor fit]",–
c1cc2c(cc1CN1CCN(C3CCCCCC3)CC1)OCO2,"inconclusive: 22.4 µM [inhibitor, partial curve, poor fit]",–
CCCc1nnc(NC(=O)c2nc(S(=O)(=O)Cc3ccc(C)cc3)ncc2Cl)s1,inactive,–

SMILES,Potency,"activity change, negative = inhibition"
CC(C)(C)C1CCc2onc(C(=O)Nc3sc4c(c3C(N)=O)CCCC4)c2C1 (stereo unspecified),"inconclusive: 10 µM [inhibitor, full curve, poor fit]",–
N/C(Cc1ccc([N+](=O)[O-])cc1)=N\OC(=O)COc1ccccc1Cl,"inconclusive: 31.6 µM [inhibitor, single point]",–
O=C(c1ccc(N2CCCCC2)c([N+](=O)[O-])c1)N1CCN(S(=O)(=O)c2ccccc2)CC1,"inconclusive: 25.1 µM [inhibitor, partial curve, poor fit]",–
C=CCNC(=S)NNc1nc2c(c(=O)[nH]1)C1(CCCCC1)Cc1ccccc1-2,"inconclusive: 31.6 µM [inhibitor, partial curve]",–
Cc1ccc(C)c(SCC(=O)Nc2oc(C)c3c(C)n[nH]c(=O)c23)c1,–,inactive: 13.9%
CCN1C(=O)CSC1=NC12CC3CC(CC(C3)C1)C2,"inconclusive: 3.98 µM [inhibitor, full curve, poor fit]",–
CC1(C)Cc2c(ccc3ccccc23)C(=O)N1,–,inactive: 44.6%
CN(C)CCCN(C(=O)c1ccc(S(=O)(=O)N2CCCCC2)cc1)c1nc2cc3c(cc2s1)OCO3,"inconclusive: 70.8 µM [inhibitor, single point]",–
Cc1cc(C)c2c(=O)n(CC(=O)NC3CCCC3)sc2n1,active: 8.91 µM,–
COc1ccc(NC(=O)C(C/C=C(/C)Cl)C(C)=O)cc1 (stereo unspecified),"inconclusive: 8.91 µM [inhibitor, single point]",–
COc1cc(OC)c2c(-c3ccccc3)cc(=O)oc2c1C(CCN1CCCC(C)C1)c1ccc(N(C)C)cc1 (stereo unspecified),"inconclusive: 14.1 µM [inhibitor, full curve]",–
NC(=O)c1ccccc1NC(=S)NC(=O)CCc1ccccc1,"inconclusive: 35.5 µM [inhibitor, partial curve, poor fit]",–
CCCNC(=O)Nc1cc(C(=O)NCc2cccc(OCC)c2)ccc1N1CCCC1,–,inactive: -1.51%
COc1ccc(N(C)C(=O)NCc2noc3ccc(C)cc23)c(OC)c1,–,inactive: 56.2%
Cc1ccc(CN2CCN(/N=C/c3ccco3)CC2)c(C)c1,"inconclusive: 50.1 µM [inhibitor, partial curve]",–
COc1ccc(/C=N/NC(=O)CSCC(=O)Nc2ccccc2)cc1,–,inactive: 26.7%
O=C(NC(=S)NCc1ccc2c(c1)OCO2)c1ccccc1,–,inactive: -10.3%
Cc1ccccc1NC(=O)Cn1c(CCC(=O)O)ccc1-c1cccs1,–,inactive: 9.71%
Nc1nc(=S)c2ncn(C3OC(CO)C(O)C3O)c2[nH]1 (stereo unspecified),"inconclusive: 56.2 µM [inhibitor, partial curve, poor fit]",–
Cc1nnc(SCC2=C(C(=O)O)N3C(=O)C(NC(=O)COc4ccccc4)C3SC2)s1 (stereo unspecified),"inconclusive: 44.7 µM [inhibitor, partial curve]",–
CCOc1ccc(S(=O)(=O)N=C(c2ccccc2)N2CCOCC2)cc1,–,inactive: 13.2% [at 57 µM]
Cn1cccc1-c1nc2ccccc2n1C,"inconclusive: 70.8 µM [inhibitor, partial curve]",–
C/C(CCC1CC(C)OC1=O)=N\NC(N)=S (stereo unspecified),"inconclusive: 15.8 µM [inhibitor, partial curve, poor fit]",–
Cc1ncoc1C(=O)Nc1ncc([N+](=O)[O-])s1,"inconclusive: 31.6 µM [inhibitor, partial curve]",–

SMILES,Potency,"activity change, negative = inhibition"
COc1ccc(NCC(O)Cn2c(C)c(C)c3ccccc32)cc1 (stereo unspecified),active: 39.8 µM,–
C/C=C/c1ccc(OCCN2CCc3ccccc3C2)c(OC)c1,"inconclusive: 39.8 µM [inhibitor, partial curve]",–
Cc1ccc(S(=O)(=O)c2nc(-c3ccccc3Cl)oc2N2CCN(C)CC2)cc1,"inconclusive: 56.2 µM [inhibitor, partial curve, poor fit]",–
CCCOc1ccccc1C(=O)N1CCC(c2nc3ccccc3s2)CC1,–,inactive: 37.3%
CCN(CC)C(=S)SSC(=S)N(CC)CC,active: 17.8 µM,–
Cc1cccc(NCc2ccc(N(C)C)cc2)n1,"inconclusive: 31.6 µM [inhibitor, partial curve]",–
O=C(CCCN1C(=O)/C(=C/c2cccs2)SC1=S)Nc1cccc(O)c1,"inconclusive: 35.5 µM [inhibitor, partial curve]",–
CCOC(=O)c1ccc(Nc2c(-c3ccc(O)cc3)nc3nc[nH]n23)cc1,"inconclusive: 89.1 µM [inhibitor, partial curve, poor fit]",–
COC(=O)c1ccc(N2NC(=O)/C(=C/c3cc(OC)c(O)c(OC)c3)C2=O)cc1,"inconclusive: 35.5 µM [inhibitor, partial curve]",–
Nc1sc(-c2ccccc2)c(Cc2ccccc2)c1C(=O)O,"inconclusive: 39.8 µM [inhibitor, partial curve, poor fit]",–
Cc1nnc(NC(=O)c2nc(S(=O)(=O)Cc3ccccc3)ncc2Cl)s1,inactive,–
Cc1cccc(OCCNC(=O)c2ccc(Oc3ccc(C(F)(F)F)cc3[N+](=O)[O-])cc2)c1,"inconclusive: 35.5 µM [inhibitor, single point]",–
CC1=CC(C)(C)n2c(O)c(N=N)c3cc(C)cc1c32,"inconclusive: 56.2 µM [inhibitor, single point]",–
CCOC(=O)C=C(C(=O)OCC)C(=O)OCC,"inconclusive: 22.4 µM [inhibitor, full curve]",–
Cc1cc(C)c(OCCN2CCOCC2)c(Cl)c1,"inconclusive: 25.1 µM [inhibitor, full curve]",–
O=C(O)c1ccc2c(c1)C(=O)/C(=C/c1ccccc1)C2=O,active: 44.7 µM,–
Cc1cccc(-c2n[nH]c(=S)n2/N=C/C=C/c2ccco2)c1,"inconclusive: 17.8 µM [inhibitor, partial curve, poor fit]",–
CCOC(=O)c1c(C)[nH]c(N=Nc2ccccc2)c1C,active: 39.8 µM,–
Cc1ccc(C)c(N2C(=O)c3cc(N4CCOCC4)c([N+](=O)[O-])cc3C2=O)c1,"inconclusive: 15.8 µM [inhibitor, full curve, poor fit]",–
CCCC(=O)NCC(c1ccc2c(c1)OCO2)N1CCN(c2ccc(F)cc2)CC1 (stereo unspecified),–,inactive: 4.2% [at 57 µM]
Cc1c(N=NC2=C(O)CC(C)(C)CC2=O)c(=O)n(-c2ccccc2)n1C,"inconclusive: 63.1 µM [inhibitor, single point]",–
COc1ccc(C2CC(=O)C=C(NNS(=O)(=O)c3ccc(C)cc3)C2)cc1 (stereo unspecified),–,inactive: 14.1%
CC(=O)Nc1ccc2c(c1)nc1n2CCSC1,–,inactive: 49.4%
